Test results reported in patent publication US20240124575A1 (SIMCERE ZAIMING PHARMACEUTICAL, published 2024).

Key:
murine CD33-His protein = molecular target: T1, murine CD33-His protein (murine, UniProt Q63994 18-240, limits assumed); assay: ELISA on coated murine CD33-his
T1 construct: also called murine CD33 protein
T1 sequence (looked up): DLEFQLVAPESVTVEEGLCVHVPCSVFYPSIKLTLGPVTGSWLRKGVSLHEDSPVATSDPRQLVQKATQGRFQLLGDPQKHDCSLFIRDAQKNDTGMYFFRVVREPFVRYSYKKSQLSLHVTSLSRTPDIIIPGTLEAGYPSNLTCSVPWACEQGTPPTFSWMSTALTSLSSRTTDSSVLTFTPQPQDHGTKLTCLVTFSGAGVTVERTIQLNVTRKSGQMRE

human CD33-C2-his = molecular target: T2, human CD33-C2-his (human, UniProt P20138 136-260); assay: ELISA on coated human CD33-C2-his
Sequence of human CD33-C2-his (P20138 other isoform, or with tags, fused parts or gaps limits assumed): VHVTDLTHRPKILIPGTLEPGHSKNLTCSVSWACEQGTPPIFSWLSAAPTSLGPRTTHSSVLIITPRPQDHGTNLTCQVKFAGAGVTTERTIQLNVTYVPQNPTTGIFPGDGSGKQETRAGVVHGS
T2 construct: expressed in HEK293E; also called hCD33-C2-his; human CD33 protein C2-domain; not shown: His tag

human CD33-V-his = molecular target: T3, human CD33-V-his (human, UniProt P20138 18-144); assay: ELISA on coated human CD33-V-his
Sequence of human CD33-V-his (P20138 other isoform, or with tags, fused parts or gaps limits assumed): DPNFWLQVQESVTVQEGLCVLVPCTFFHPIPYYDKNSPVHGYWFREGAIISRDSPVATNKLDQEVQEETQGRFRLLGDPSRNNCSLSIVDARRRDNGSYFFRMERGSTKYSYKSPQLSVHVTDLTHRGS
T3 construct: expressed in HEK293E; also called hCD33-V-his; human CD33 protein V-domain; not shown: His tag

Measured: binding result

B1: S006-NB146-17-H2 (Fc fusion)
chain: EVQLVESGGGLVQPGGSLRLSCAASGSIFTSDDMDYAMGWYRQAPGKQREWVATITSDEDTNYVDSVKGRFTISRDNAKNSLYLQMNSLRAEDTAVYYCFANVRSDRSSLYRNYWGQGTMVTVSS[letters of human IgG1 Fc with changes left out]
notes: also called humanized VHH-Fc
no binding (tested: 100 nM): all assays above

B2: S006-NB146-17-H3 (Fc fusion)
chain: EVQLVESGGGLVQPGGSLRLSCAASGSIFTSDDMDYAMGWYRQAPGKQREWVATITSDEDTNYVDSVKGRFTISRDNAKNSAYLQMNSLRAEDTAVYYCFANVRSDRSSLYRNYWGQGTMVTVSS[letters of human IgG1 Fc with changes left out]
notes: also called humanized VHH-Fc
no binding (tested: 100 nM): all assays above

B3: S006-NB146-17-H4 (Fc fusion)
chain: QVQLVESGGGLVQPGGSLRLSCAASGSIFTSDDMDYAMGWYRQAPGKQREWVATITSDEDTNYVDSVKGRFTISRDNAKNSAYLQMNSLRAEDTAVYYCFANVRSDRSSLYRNYWGQGTMVTVSS[letters of human IgG1 Fc with changes left out]
notes: also called humanized VHH-Fc
no binding (tested: 100 nM): all assays above

B4: S006-NB146-17-H5 (Fc fusion)
chain: EVQLVESGGGLVQPGGSLRLSCAASGSIFTSQDMDYAMGWYRQAPGKQREWVATITSDEDTNYVDSVKGRFTISRDNAKNSAYLQMNSLRAEDTAVYYCFANVRSDRSSLYRNYWGQGTMVTVSS[letters of human IgG1 Fc with changes left out]
notes: also called humanized VHH-Fc
no binding (tested: 100 nM): all assays above

B5: S006-NB146-17-H6 (Fc fusion)
chain: EVQLVESGGGLVQPGGSLRLSCAASGSIFTSDDMDYAMGWYRQAPGKQREWVATITSDEDTNYGDSVKGRFTISRDNAKNSAYLQMNSLRAEDTAVYYCFANVRSDRSSLYRNYWGQGTMVTVSS[letters of human IgG1 Fc with changes left out]
notes: also called humanized VHH-Fc
no binding (tested: 100 nM): all assays above

B6: S006-NB146-17-H7 (Fc fusion)
chain: EVQLVESGGGLVQPGGSLRLSCAASGSIFTSDDMDYAMGWYRQAPGKQREWVATITSDEDTNYVDSVKGRFTISRDSAKNSAYLQMNSLRAEDTAVYYCFANVRSDRSSLYRNYWGQGTMVTVSS[letters of human IgG1 Fc with changes left out]
notes: also called humanized VHH-Fc
no binding (tested: 100 nM): all assays above

B7: S006-NB146-17-H8 (Fc fusion)
chain: EVQLVESGGGLVQPGGSLRLSCAASGSIFTSNDMDYAMGWYRQAPGKQREWVATITSDEDTNYVDSVKGRFTISRDSAKNSAYLQMNSLRAEDTAVYYCFANVRSDRSSLYRNYWGQGTMVTVSS[letters of human IgG1 Fc with changes left out]
notes: also called humanized VHH-Fc
no binding (tested: 100 nM): all assays above

B8: S006-NB146-17-H9 (Fc fusion)
chain: EVQLVESGGGLVQPGGSLRLSCAASGSIFTSDDMDYAMGWYRQAPGKQREWVATITSDEDTNYVDSVKGRFTISRDNAKNSAYLQMNSLKPEDTAVYYCFANVRSDRSSLYRNYWGQGTMVTVSS[letters of human IgG1 Fc with changes left out]
notes: also called humanized VHH-Fc
no binding (tested: 100 nM): all assays above
